{"source": "the antibiotic and cytotoxicity screens of Wong et al. (2023)", "note": "The other results are listed elsewhere or left out.", "data": [{"tested_on": "HSkMC (human skeletal muscle cells)", "assay": "cytotoxicity call (relative viability < 0.9)", "conditions": "10 µM", "values": [{"smiles": "O=C(C[C@H]1CC[C@@H](NC(=O)c2ccc(F)cc2)[C@@H](CO)O1)NCc1ccncn1", "cytotoxicity call": "inactive"}, {"smiles": "C[C@@H]1CN([C@@H](C)CO)C(=O)CCCn2nncc2CO[C@H]1CN(C)C(=O)Nc1ccccc1C(F)(F)F", "cytotoxicity call": "inactive"}, {"smiles": "NNC(=O)c1cc(-c2ccccc2)n[nH]1", "cytotoxicity call": "inactive"}, {"smiles": "COc1ccc(CN(C)C[C@@H]2OCCCC[C@@H](C)Oc3ccc(NC(=O)Nc4cccc5ccccc45)cc3C(=O)N([C@H](C)CO)C[C@H]2C)cc1", "cytotoxicity call": "active"}, {"smiles": "C[C@H](CO)N1C[C@H](C)[C@@H](CN(C)C(=O)Nc2ccc(F)cc2)OCCCC[C@H](C)Oc2ccc(NC(=O)c3ccccc3)cc2C1=O", "cytotoxicity call": "inactive"}, {"smiles": "COCC(=O)N(C)C[C@H]1Oc2cc(C#Cc3ccccc3)ccc2S(=O)(=O)N([C@@H](C)CO)C[C@H]1C", "cytotoxicity call": "inactive"}, {"smiles": "C[C@@H]1CN([C@@H](C)CO)C(=O)c2cc(NC(=O)NC3CCCCC3)ccc2O[C@@H]1CN(C)C(=O)Nc1cccc2ccccc12", "cytotoxicity call": "active"}, {"smiles": "O=C1CN(S(=O)(=O)Cc2ccccc2)C[C@H]2[C@H](c3ccc(C#Cc4ccc(F)cc4)cc3)[C@@H](CO)N12", "cytotoxicity call": "active"}, {"smiles": "COc1ccc(NC(=O)N(C)C[C@H]2OCCCC[C@@H](C)Oc3ccc(NS(=O)(=O)c4ccc(Cl)cc4)cc3C(=O)N([C@H](C)CO)C[C@@H]2C)cc1", "cytotoxicity call": "inactive"}, {"smiles": "C[C@@H]1CN([C@H](C)CO)C(=O)c2cccc(NS(=O)(=O)c3cccs3)c2O[C@H]1CN(C)S(=O)(=O)c1cn(C)cn1", "cytotoxicity call": "inactive"}, {"smiles": "COc1ccc(CN(C)C[C@H]2OCCCC[C@H](C)Oc3ccc(NS(=O)(=O)c4ccc(OC)cc4)cc3C(=O)N([C@@H](C)CO)C[C@H]2C)cc1", "cytotoxicity call": "inactive"}]}]}
